Measurements from PubChem BioAssay (NCATS).
Where “and” joins values, the source holds several entries; their conditions need not be identical. Equal values may be shown once. The inconclusive results got no clear call from the source; some entries with a clear call stand among them for comparison. A potency beside an inconclusive call is a rough fit, not a confirmed value. Calls of active or inactive are those of the source. The call rests on the fitted dose curve; in most records, active means well fitted cell-killing curve with a large enough effect; inconclusive means small, poorly fitted or top-dose-only effect, or effect the other way; inactive means no such curve, though single readings can be large or run the other way.

Test: Viability qHTS for spleen associated tyrosine kinase inhibitor (SYKi) naive MV4-11 cells (AID 1963823); further: nearly all actives have a fitted effect of over 40% in size
Details: MV4-11 AML viability, CellTiter-Glo luminescence, 72 h; series mostly up to 45 µM
How it was run: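 CellTiter-Glo luminescence, 10 min room-temperature incubation, gave viability. Cells: naive MV4-11 (500/well), treated 72 hr at 37 C, 5% CO2.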
Potency means the concentration at half of the fitted maximal effect; tags describe the fitted curve by direction and shape.

Row | Structure (SMILES) | Potency
1 | Clc1ccc2c(c1)CCc1cccnc1C2=C1CCNCC1 | inconclusive: 16.8 µM [cytotoxic, partial curve, poor fit]
2 | C[C@@H](CN(C)C)CN1c2ccccc2Sc2ccccc21 | inconclusive: 7.5 µM [cytotoxic, partial curve, poor fit]
3 | Nc1nccn2c(C3CCC(C(=O)O)CC3)nc(-c3cc4cccc(Cl)c4[nH]3)c12 (stereo not given) | inconclusive: 461 nM [cytotoxic, full curve] and active: 934 nM
4 | C[C@@H](O[C@H]1OCCN(Cc2n[nH]c(=O)[nH]2)[C@H]1c1ccc(F)cc1)c1cc(C(F)(F)F)cc(C(F)(F)F)c1 | inconclusive: 16.8 µM [cytotoxic, partial curve, poor fit]
5 | Cc1nc2n(c(=O)c1CCN1CCC(c3noc4cc(F)ccc34)CC1)CCC[C@H]2O | inactive
6 | Cc1cccc(C)c1NC(=O)C(C)N (stereo not given) | inconclusive: 33.5 µM [cytotoxic, single point]
7 | CCCc1cc(C)[nH]c(=O)c1CNC(=O)c1cc(-c2ccc(N3CCN(C(C)C)CC3)nc2)cc2c1cnn2C(C)C | active: 13 µM and active: 5.9 µM
8 | CC1(C)SCCN(S(=O)(=O)c2ccc(OCC#CCO)cc2)[C@H]1C(=O)NO | inconclusive: 16.6 µM [cytotoxic, partial curve]
9 | CNCCC(Oc1ccc(C(F)(F)F)cc1)c1ccccc1 (stereo not given) | active: 18.8 µM
10 | C/C(=N\NC(=S)N1CCC1)c1ccccn1 | inconclusive: 0.0074 µM [cytotoxic, full curve]
